Test results taken from PubChem BioAssay AID360 (National Center for Advancing Translational Sciences (NCATS), 2006).
The campaign covered roughly 48,000 compounds. About 550 (1.1%) were called active. About 4% were inconclusive and are not listed. Cut-off read from the data, not from the text of the source: active = potency below about 15 µM; inconclusive = mostly about 16 µM to 33 µM; inactive = weaker than that. Some of the results follow.

target: Lysosomal acid glucosylceramidase (Homo sapiens) (UniProt P04062); test: Glucocerebrosidase; settings: purified enzyme, resorufin glucoside fluorescence (screen aimed at inhibitors), 20 min;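 note: the screen sought inhibitors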
Procedure, shortened: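 Normal human glucocerebrosidase (0.2 nM final) was assayed with resorufin β-D-glucopyranoside (30 uM final) in 50mM citric acid/KH2PO4, 10mM sodium taurocholate, 0.01% tween-20, pH 5.9. Compounds were titrated; fluorescence (Ex 548, Em 600) read after 20 min at RT.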
Potency is the fitted concentration of half-maximal effect.

Sequence of UniProt P04062 (P04062 whole entry, looked up): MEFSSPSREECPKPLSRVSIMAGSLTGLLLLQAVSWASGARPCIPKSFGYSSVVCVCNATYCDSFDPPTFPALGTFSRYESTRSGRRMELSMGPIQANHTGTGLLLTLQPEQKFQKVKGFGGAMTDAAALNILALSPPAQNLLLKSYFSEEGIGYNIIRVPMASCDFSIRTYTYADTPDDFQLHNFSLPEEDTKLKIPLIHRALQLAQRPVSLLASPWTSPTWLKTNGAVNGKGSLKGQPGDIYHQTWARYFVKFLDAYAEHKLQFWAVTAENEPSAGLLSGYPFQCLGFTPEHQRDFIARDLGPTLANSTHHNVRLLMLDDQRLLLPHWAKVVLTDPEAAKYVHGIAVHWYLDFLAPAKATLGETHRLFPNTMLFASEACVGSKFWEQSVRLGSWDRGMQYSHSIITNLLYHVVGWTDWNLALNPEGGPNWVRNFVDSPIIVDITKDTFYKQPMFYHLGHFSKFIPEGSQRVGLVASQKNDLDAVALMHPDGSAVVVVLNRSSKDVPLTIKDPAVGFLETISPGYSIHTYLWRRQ

Potency, inactive:
COC(=O)CCN(c1ccccc1)S(=O)(=O)c1ccc(OC)cc1 > 76.9 µM
Cn1c(=O)cc(-c2ccccc2)c2ccccc21 > 76.9 µM
COC(=O)c1ccccc1NC(=O)CSc1nnc(CNS(=O)(=O)c2ccc(C)cc2)n1C > 76.9 µM
N=c1sccn1CC(=O)Nc1ccccc1Cc1ccccc1 > 76.9 µM
CCC(=O)NC(=Nc1nc2ccccc2s1)NC(=O)CC > 76.9 µM
COC(=O)C1(S(=O)(=O)C2(C(=O)OC)CCCC2)CCCC1 > 76.9 µM
COc1ccc(C2(C(=O)NCCN3CCOCC3)CCOCC2)cc1 > 76.9 µM
COc1ccc(NC(=O)CN2C(=O)C(C)Oc3ccccc32)cc1 (centres undefined) > 76.9 µM
CCn1c(CCn2ccnc2C)n[nH]c1=S > 76.9 µM
COc1ccc(C2N(C(=O)c3ccccc3)CCN2C(=O)c2ccccc2)cc1
O=C(c1c(F)c(F)c(F)c(F)c1F)N1CCc2ccccc21 > 76.9 µM
COc1ccc2c(=O)c3c(=O)n(Cc4ccco4)c(C(C)C)nc3oc2c1 > 76.9 µM
C=CCNC(=O)C1CC(=O)N(c2ccc(OCC(=O)NCc3ccccc3)cc2)C1 (centres undefined) > 76.9 µM
CCC(=O)c1ccccc1OCCN1C(=O)NC(C)(C)C1=O > 76.9 µM
CN1CC(=O)N(CC(=O)Nc2ccc(N(C)C)cc2)c2ccccc2C1=O > 76.9 µM
Cc1ccc2nc(CSc3nnc(-c4ccco4)o3)cc(=O)n2c1 > 76.9 µM
COCc1ccccc1Cn1cnc2c1c(=O)n(C)c(=O)n2C > 76.9 µM
COCCNC(=O)c1sc2ncn(CC(=O)N3CCCCC3)c(=O)c2c1C
CC(C)CCn1nnnc1C(c1ccc(F)cc1)N1CCN(C(=O)c2ccco2)CC1 (centres undefined) > 76.9 µM
COc1cc(S(=O)(=O)N2CCC(C(N)=O)CC2)c(C)cc1C > 76.9 µM
CN1CCN(C(=O)c2ccccc2N(Cc2ccccc2)S(C)(=O)=O)CC1 > 76.9 µM
Cc1cc(NC(=O)CSc2nnc(-c3ccc(S(=O)(=O)N4CCCC4)cc3)n2C)no1 > 76.9 µM
Nc1ccccc1SCc1cn2ccccc2n1
COc1cc(-c2nnc3sc(-c4cccs4)nn23)cc(OC)c1OC > 76.9 µM
Cc1cc(C(C#N)c2ccccc2)n2ncnc2n1 (centres undefined) > 76.9 µM
COc1ccc(C(=O)Nn2c(C3CCC3)nc3ccccc3c2=O)c(OC)c1 > 76.9 µM
COC(=O)c1sc(N)c(C(=O)OC)c1CSc1nnc(-c2ccccc2Cl)n1C > 76.9 µM
COCCn1c(Cc2ccccc2)nnc1SCC(=O)Nc1cc(C)on1 > 76.9 µM
CCOC(=O)c1[nH]c(C)c(C(=O)OCC(=O)NC(=O)NC(C)(C)C)c1C > 76.9 µM
COCCCNC(=O)c1ccc(N2CCCC2)c(NS(=O)(=O)c2ccc(C)cc2)c1 > 76.9 µM
COc1ccc(OC)c(C(=O)CSc2nnc(-c3cccs3)o2)c1 > 76.9 µM
COc1ccc(Cn2nnnc2C(c2cccs2)N2CCSCC2)cc1 (centres undefined) > 76.9 µM
CCc1c(C(=O)NCCc2ccc(OC)c(OC)c2)[nH]c(C)c1C(C)=O > 76.9 µM
COc1ccc(N2CCN(S(=O)(=O)/C=C/c3ccccc3)CC2)cc1 > 76.9 µM
Cc1ccc(S(=O)(=O)NCCSc2nnnn2C)cc1 > 76.9 µM
COc1ccc(-n2c(N)c(Br)c(=O)[nH]c2=O)cc1 > 76.9 µM
Nn1c(SCC(=O)Nc2ccccc2)nnc1-c1cccnc1 > 76.9 µM
CCOC(=O)C1=C(O)CCn2c1nc1ccccc12 > 76.9 µM
CCCCC(=O)Nc1cccc(NC(=O)c2ccc(Br)o2)c1 > 76.9 µM
CC(=O)N1CCCc2cc(S(=O)(=O)NCCC3=CCCCC3)ccc21 > 76.9 µM
CCCCn1nc(C(=O)N2CCc3ccccc32)c2ccccc2c1=O > 76.9 µM
CN(C)c1nc2ccccc2c(N)c1-c1ccccc1 > 76.9 µM
Cc1[nH]c(-c2ccco2)nc1C(=O)O > 76.9 µM
Cc1ccccc1CSc1nnc(-c2ccco2)n1Cc1ccco1 > 76.9 µM
O=C(c1ccco1)N1CCCSC1=Nc1ccccc1 > 76.9 µM
CCOC(=O)N1CCC(N(C(=O)Nc2ccccc2)C(C)CC)CC1 (centres undefined) > 76.9 µM
CC1CCN(C(=O)Nc2cccc(NC(=O)N3CCC(C)CC3)c2)CC1 > 76.9 µM
N#Cc1ccccc1CSc1nc(N2CCCCC2)nc(N2CCCCC2)n1 > 76.9 µM
C=CCn1c(=O)c2c(nc3n2CCN3c2cccc(Cl)c2C)n(C)c1=O > 76.9 µM
N#Cc1nc(-c2ccco2)oc1NCc1cccnc1 > 76.9 µM
CCOc1ccc(NC(=O)COC(=O)Cn2cnnn2)cc1OCC > 76.9 µM
COC(=O)c1c(NC(=O)CN2CCCC(C)C2)c2c(C)cccc2n1C (centres undefined) > 76.9 µM
Cc1c(N(C(=O)c2cc(=O)[nH]c3ccccc23)C(C)C)c(=O)n(-c2ccccc2)n1C > 76.9 µM
c1ccc2c(-c3nc4ncccc4o3)cccc2c1 > 76.9 µM
CCN(CC)C(=O)CSc1nnc([C@H](Cc2c[nH]c3ccccc23)NC(=O)OC(C)(C)C)o1 > 76.9 µM
COc1ccc(S(=O)(=O)N(CC(=O)O)c2ccccc2)cc1 > 76.9 µM
Cc1sc2ncn(-n3c(C)ccc3C)c(=O)c2c1C > 76.9 µM
O=C(c1cccs1)N(Cc1ccco1)Cc1cc2ccccc2[nH]c1=O > 76.9 µM
Brc1ccccc1-c1nnc(COc2ncnc3c2cnn3-c2ccccc2)o1 > 76.9 µM
